Measured values reported in US11795195B2, “Antibody-drug conjugates including hemiasterlin derivative” (Sumitomo Pharma Co., Ltd., priority 2017, dated 2023).

Legend:
[1] = tested on: Raji; assay: Cellular Toxicity Test (3) for ADCs; assay type: cell-based; details: treatment with 26.6 nM of ADC51
Description: In accordance with the method described in Test Example 3 or Test Example 7, cellular toxicities of Example ADCs were measured using the cell types shown in the following table. As an indicator for the cellular toxicity, IC50 or the cell survival rate upon the treatment with 333 nM of ADC was measured. However, for ADC 51, the cell survival rate upon the treatment with 26.6 nM of ADC51 was measured.

[2] = tested on: Karpas-299 cells; assay: Cellular Toxicity Test (2) for ADCs, cell survival relative to brentuximab; assay type: cell-based, human; details: Karpas-299, 2000 ng/mL solution added, 4 days, relative to cells surviving brentuximab treatment
Description: Karpas-299 cells were prepared to be 2×10^6 cells/mL in culture medium A, and were added to a 96 well microplate for cell culturing in an amount of 50 μL for each well. Brentuximab or Example ADCs, the concentration of which was prepared to be 2000 ng/mL with culture medium A, was added to the microplate in an amount of 50 μL for each well, and cultured at 37 degree under 5% CO2 for 4 days. After culturing, the microplate was taken out from the incubator, and was left at rest at room temperature for 10 minutes. To each well, 50 μL of CellTiter-Glo Luminescent Cell Viability Assay (Promega) was added, and the resultant mixture was stirred. This mixture was incubated at a dark place for 20 minutes, and luminescence was measured using a microplate luminometer, thereby determining the percentage of the number of cells that survived upon the treatment with Example ADCs relative to the number of cells that survived upon the treatment with brentuximab.

Molecule	Cell survival rate (%) [1]	Cell survival rate (%) [2]
ADC51: ADC of Alemtuzumab and M4, average DAR 7.7 (conjugate, chains of the INN, looked up, drug-linker M4, DAR 7.7) heavy: QVQLQESGPGLVRPSQTLSLTCTVSGFTFTDFYMNWVRQPPGRGLEWIGFIRDKAKGYTTEYNPSVKGRVTMLVDTSKNQFSLRLSSVTAADTAVYYCAREGHTAAPFDYWGQGSLVTVSS[human IgG1 constant region left out] light: DIQMTQSPSSLSASVGDRVTITCKASQNIDKYLNWYQQKPGKAPKLLIYNTNNLQTGVPSRFSGSGSGTDFTFTISSLQPEDIATYYCLQHISRPRTFGQGTKVEIKRTVAAPSVFIFPPSDEQLKSGTASVVCLLNNFYPREAKVQWKVDNALQSGNSQESVTEQDSKDSTYSLSSTLTLSKADYEKHKVYACEVTHQGLSSPVTKSFNRGEC	96%	
Example ADC18: ADC of brentuximab and M15, average DAR 7.03 (conjugate, chains of the INN, looked up, drug-linker M15, DAR 7.03) heavy: QIQLQQSGPEVVKPGASVKISCKASGYTFTDYYITWVKQKPGQGLEWIGWIYPGSGNTKYNEKFKGKATLTVDTSSSTAFMQLSSLTSEDTAVYFCANYGNYWFAYWGQGTQVTVSA[human IgG1 constant region left out] light: DIVLTQSPASLAVSLGQRATISCKASQSVDFDGDSYMNWYQQKPGQPPKVLIYAASNLESGIPARFSGSGSGTDFTLNIHPVEEEDAATYYCQQSNEDPWTFGGGTKLEIKRTVAAPSVFIFPPSDEQLKSGTASVVCLLNNFYPREAKVQWKVDNALQSGNSQESVTEQDSKDSTYSLSSTLTLSKADYEKHKVYACEVTHQGLSSPVTKSFNRGEC		53%
Example ADC41: ADC of brentuximab and M47, average DAR 8 (conjugate, chains of the INN, looked up, drug-linker M47, DAR 8) heavy: QIQLQQSGPEVVKPGASVKISCKASGYTFTDYYITWVKQKPGQGLEWIGWIYPGSGNTKYNEKFKGKATLTVDTSSSTAFMQLSSLTSEDTAVYFCANYGNYWFAYWGQGTQVTVSA[human IgG1 constant region left out] light: DIVLTQSPASLAVSLGQRATISCKASQSVDFDGDSYMNWYQQKPGQPPKVLIYAASNLESGIPARFSGSGSGTDFTLNIHPVEEEDAATYYCQQSNEDPWTFGGGTKLEIKRTVAAPSVFIFPPSDEQLKSGTASVVCLLNNFYPREAKVQWKVDNALQSGNSQESVTEQDSKDSTYSLSSTLTLSKADYEKHKVYACEVTHQGLSSPVTKSFNRGEC		63%
